Results taken from PubChem BioAssay AID485364 (National Center for Advancing Translational Sciences (NCATS), 2010).
The whole screen tested about 360,000 compounds, of which about 11,000 (3.1%) were called active. Inconclusive results, whose numbers are uncertain, are shown with a selection of clear calls. Calls come from the whole dose curve; as a rule, active = well fitted inhibition curve with a large enough effect; inconclusive = small, poorly fitted or top-dose-only effect; inactive = no such curve, though single readings can be large or run the other way. Potencies of inconclusive entries are left out as doubtful fits.

Each compound was assayed against Schistosoma mansoni thioredoxin glutathione reductase (TGR) (UniProt Q962Y6) (assay: qHTS Assay for the Inhibitors of Schistosoma Mansoni Peroxiredoxins). Settings: purified TGR, DTNB reduction, TNB absorbance 405 nm; activity change, negative = inhibition: at 114 µM (top of the series) unless noted.
Summary of the method: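 TGR 20 nM + NADPH 100 uM (dispensed conc.), cpd preinc 15 min RT; start with NADPH (500 uM addition) then DTNB (15 mM addition). Kinetic TNB absorbance, 405 nm filter. Four-parameter Hill fit across titration.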
% is set by controls: 0 for no effect and ±100 for the full control effect; potency is the fitted concentration of half-maximal effect; tags give direction and shape of the fitted curve.
Note: nearly all actives have a fitted effect of over 60% in size.

| Structure (SMILES) | activity change, negative = inhibition | Potency |
| --- | --- | --- |
| Cc1cc(Cn2nc(C(=O)NCc3cccc(C(F)(F)F)c3)cc2-c2ccccc2)on1 | inactive: 0.846% | – |
| Cc1nc(N)sc1C(=O)N1N=N1 | – | active: 2.51 µM |
| COC(=O)C1=C(C)N(c2ccc(F)cc2)/C(=C/c2ccc(O)cc2)C1=O | – | inconclusive [inhibitor, partial curve] |
| O=C1CC(N2CCC(c3nc4ccccc4s3)CC2)C(=O)N1Cc1ccccc1 (stereo not drawn) | – | inconclusive [inhibitor, single point] |
| Cc1ccc(C(=O)NNC(=O)CSc2nnc(-c3ccncc3)n2-c2ccc(C)cc2)cc1 | inactive: 0% | – |
| CC/C(=N\NC(=O)c1ccccc1O)c1c(O)n(Cc2ccccc2)c(=O)[nH]c1=O | – | inconclusive [inhibitor, partial curve] |
| C/C(=C\c1ccccc1F)C1Nc2cccc3cccc(c23)N1 | – | inconclusive [inhibitor, partial curve] |
| Cn1c(=S)[nH]c2sc3c(c2c1=O)CCC(C(C)(C)C)C3 (stereo not drawn) | – | inconclusive [inhibitor, single point] |
| CCN1C(=O)CSC1=Nc1cccc(C(=O)O)c1 | inactive: -0.579% | – |
| C/C(=N\Nc1nc2ccccc2[nH]1)c1ccc([N+](=O)[O-])cc1 | inactive: 4% | – |
| COc1ccc(C(c2c(O)cc(C)n(Cc3ccco3)c2=O)N2CCN(c3ccccc3)CC2)cc1 (stereo not drawn) | – | active: 3.16 µM |
| CCOC(=O)c1ccc(Nc2cc(C)nc(N3CCOCC3)n2)cc1 | – | inconclusive [inhibitor, partial curve] |
| CC(=O)Nc1ccc(C(=O)CN2CCN(c3ccccc3)CC2)cc1 | – | active: 14.1 µM |
| CC(=O)N1N=C(c2ccccc2)OC1c1ccc([N+](=O)[O-])s1 (stereo not drawn) | – | active: 31.6 µM |
| CS(=O)(=O)N(CC(=O)N1CCOCC1)Cc1ccc(Cl)cc1 | inactive: -6.93% | – |
| CN1C(=O)N(C)C2(c3ccccc3)Nn3c(s/c(=C/c4ccco4)c3=O)=NC12c1ccccc1 (stereo not drawn) | – | inconclusive [inhibitor, partial curve] |
| Cc1ccccc1N1C(=O)NC(=O)/C(=C\c2cc(C)n(C)c2C)C1=O | – | inconclusive [inhibitor, full curve, poor fit] |
| CCCCn1c(O)c(C(C)=NCCN2CCCCC2)c(=O)[nH]c1=O | – | inconclusive [inhibitor, full curve] |
| CC(=O)N1CCN(c2ccc(NC(=O)c3ccc([N+](=O)[O-])o3)cc2Cl)CC1 | – | inconclusive [inhibitor, full curve] |
| O=[N+]([O-])c1ccc(Sc2nnnn2-c2ccccc2)c(Cl)c1 | – | inconclusive [inhibitor, full curve] |
| CCCOc1ccc(N2C(=O)CC(N3CCN(c4ccc([N+](=O)[O-])cc4)CC3)C2=O)cc1 (stereo not drawn) | inactive: -30.8% | – |
| CN(C)C(CNC(=O)c1cccc(C#N)c1)c1ccco1 (stereo not drawn) | – | inconclusive [inhibitor, partial curve] |
| CCn1c(=NC(=O)CS(=O)(=O)c2ccc(C)cc2)sc2cccc(OC)c21 | inactive: 0.432% | – |
| Cc1ccc(NC(=S)N/C(=N/S(=O)(=O)c2ccccc2)c2ccccc2)cc1 | – | inconclusive [inhibitor, full curve, poor fit] |
| COc1ccc(NC(=S)NN2CCOCC2)cc1OC | – | inconclusive [inhibitor, single point] |

| Structure (SMILES) | activity change, negative = inhibition | Potency |
| --- | --- | --- |
| N#Cc1c(NC(=O)/C=C/c2ccco2)sc2c1CCCC2 | – | active: 20 µM |
| C[N+](C)(C)C(Cc1ccccc1)C(=O)[O-] (stereo not drawn) | – | inconclusive [inhibitor, partial curve] |
| O=C(c1ccco1)N1CCN(c2ncnc3sc4c(c23)CCC4)CC1 | – | active: 11.2 µM |
| O=C(NC1CCCCC1)c1cc(C2CC2)nn1-c1ccccc1 | – | inconclusive [inhibitor, single point] |
| Cc1ccccc1CC(=O)Nc1ccc(C(=O)N2CCCC2)cc1 | inactive: 8.19% | – |
| COc1ccccc1CNC(=O)CSc1ncc2c(n1)-c1ccccc1N(Cc1ccc(C)cc1)S2(=O)=O | inactive: 0.354% | – |
| C/C(CC(=O)Nc1ccc2ccccc2c1)=N\NC(=O)c1cnccn1 | – | inconclusive [inhibitor, partial curve] |
| CC(C)CC(=O)OC1C(N2CCOCC2)c2c(ccc(/C=C/C(=O)N3CCOCC3)c2O)OC1(C)C (stereo not drawn) | inactive: -1.26% | – |
| CC1(C)CC(=O)C(C=NCCN2CCN(CC(=O)Nc3ccc(Cl)cc3)CC2)=C(O)C1 | – | inconclusive [inhibitor, partial curve] |
| Cc1ccc(NS(=O)(=O)c2ccc(NC(=O)C3CCCO3)cc2)cc1 (stereo not drawn) | – | inconclusive [inhibitor, partial curve] |
| Cc1[nH]c2ccccc2c1C(O)CN1CCC2(CC1)OCCO2 (stereo not drawn) | – | active: 15.8 µM |
| CCOC(=O)C1=C(COC(=O)c2ccc([N+](=O)[O-])o2)NC(=O)NC1C (stereo not drawn) | – | inconclusive [inhibitor, partial curve] |
| COc1ccc(C2C(C(=O)Nc3ccccc3)=C(C)Nc3nc(-c4ccccc4)nn32)cc1OC (stereo not drawn) | inactive: -6.05% | – |
| COc1ccc(OC)c(-c2nc(Nc3ccccc3C)sc2CC(=O)O)c1 | – | inconclusive [inhibitor, partial curve] |
| Cc1cc(C)c2c(CC(=O)Nc3nnc(C(C)C)s3)coc2c1 | inactive: -2.28% | – |
| CC(C)CC(=O)NCCNC(=O)c1cc(OCC(F)(F)F)ccc1OCC(F)(F)F | inactive: -6.3% | – |
| CCC(=O)N1c2ccc(S(=O)(=O)CCC(=O)N3CCN(c4ccccc4F)CC3)cc2CC1C (stereo not drawn) | – | active: 22.4 µM |
| COc1cc(C(=O)NC(=S)NC(C)C)cc(OC)c1OC | – | inconclusive [inhibitor, partial curve, poor fit] |
| CC(C)C(C(=O)N1CCOCC1)N1C(=O)c2ccccc2C1=O (stereo not drawn) | – | inconclusive [inhibitor, single point] |
| O=C(Nc1nc2c(F)cc(F)cc2s1)C1COc2ccccc2O1 (stereo not drawn) | – | inconclusive [inhibitor, partial curve] |
| CCOc1ccc(-n2c(O)c(/C=C3\C=Nc4ccccc43)c(=O)[nH]c2=O)cc1 | – | inconclusive [inhibitor, full curve] |
| O=C1CSC(c2nn(-c3ccccc3)cc2-c2cc3ccccc3oc2=O)N1Cc1ccco1 (stereo not drawn) | – | inconclusive [inhibitor, partial curve] |
| CCN1C(=O)C(CC(=O)Nc2c(C)cccc2C)SC1=Nc1ccc(S(N)(=O)=O)cc1 (stereo not drawn) | – | inconclusive [inhibitor, full curve, poor fit] |
| COc1ccc2oc(C)c(C(=O)NN)c2c1 | – | inconclusive [inhibitor, partial curve] |
| FC(F)(F)c1cccc(NC(=S)Nc2cccc(Cl)c2)c1 | – | inconclusive [inhibitor, full curve] |

| Structure (SMILES) | activity change, negative = inhibition | Potency |
| --- | --- | --- |
| CCOC(=O)CSc1nnc(-c2ccco2)n1-c1ccc(C)cc1 | – | inconclusive [inhibitor, full curve, poor fit] |
| COc1ccc(NC(=O)c2cc(-c3ccccn3)nc3ccccc23)cc1S(=O)(=O)N(C)C | inactive: 0.121% | – |
| O=C(COC(=O)c1ccc(Br)o1)Nc1nc2ccccc2s1 | inactive: 0% | – |
| COc1cc(OC)cc(C(=O)NC(=S)Nc2nnn(C)n2)c1 | – | inconclusive [inhibitor, partial curve] |
| CN(C)CC[n+]1ccc(C(=O)c2ccccc2)cc1 | – | inconclusive [inhibitor, partial curve] |
| Cc1[nH]c2ccccc2c1CCNC(=O)c1c(N)no[n+]1[O-] | – | inconclusive [inhibitor, partial curve] |
| N#Cc1c(-c2ccco2)cc(-c2ccc(F)cc2)nc1N | – | active: 6.31 µM |
| O=C(CN1C(=O)C(=O)c2ccccc21)c1ccc(Cl)cc1 | – | inconclusive [inhibitor, full curve, poor fit] |
| COC(=O)c1ccc(CS(=O)(=O)c2ccc(C)cc2)o1 | – | active: 11.2 µM |
| CC(C)C[C@H](N)c1nnc(S(=O)(=O)Cc2ccc(F)cc2)o1 | – | active: 1 µM |
| COC(=O)c1cc2sccc2n1CC(=O)Nc1ccc(C)cc1C | inactive: -0.176% | – |
| COc1ccc(C(C)=O)cc1CSc1nnc(C)s1 | – | active: 44.7 µM |
| Cc1ccccc1NC(=O)c1nc(S(C)(=O)=O)ncc1N(Cc1ccco1)Cc1sccc1C | inactive: -1.67% | – |
| CCN(CC)C(=O)CC(c1ccccc1)c1ccco1 (stereo not drawn) | – | inconclusive [inhibitor, partial curve] |
| Cc1cc(C(=O)N2CCc3ccccc32)n(-c2ccccc2)n1 | inactive: -0.164% | – |
| CC(=O)N(Cc1ccccn1)Cc1ccco1 | – | inconclusive [inhibitor, full curve] |
| COc1ccc2[nH]c(=O)c(CN(C(=O)NC3CCCCC3)C3CCCCC3)cc2c1 | inactive: 9.44% | – |
| O=C(NC(=S)NCCc1ccccc1)C1CCCCC1 | – | inconclusive [inhibitor, partial curve] |
| CNC(=O)/C(=C\c1ccco1)NC(=O)c1ccco1 | – | inconclusive [inhibitor, partial curve, poor fit] |
| COc1ccc(NC(=O)Nc2cccs2)cc1OC | – | inconclusive [inhibitor, single point] |
| COC(=O)c1ccc(NC(=S)NCc2ccco2)cc1 | – | inconclusive [inhibitor, partial curve] |
| Cn1cccc1CC(=O)N/N=C/c1cccc2ccccc12 | – | inconclusive [inhibitor, partial curve] |
| O=C(c1nc2ccc(Cl)cn2c1CN1CCC[C@H]1CO)N1CCCCCCC1 | – | active: 44.7 µM |
